About 14,000 (4.5%) of roughly 310,000 compounds showed an effect of 50% or more. Effects have a minus sign here. This is one part of the list.
molecular target: human ether-à-go-go-related gene (hERG) potassium channel (human, UniProt Q12809); assay: primary screen, population patch clamp on CHO cells stably expressing hERG
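Also: peak tail current of the secondary pulse compared with the same well before compound.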

human ether-à-go-go-related gene (hERG) potassium channel, sequence (Q12809 whole entry, looked up): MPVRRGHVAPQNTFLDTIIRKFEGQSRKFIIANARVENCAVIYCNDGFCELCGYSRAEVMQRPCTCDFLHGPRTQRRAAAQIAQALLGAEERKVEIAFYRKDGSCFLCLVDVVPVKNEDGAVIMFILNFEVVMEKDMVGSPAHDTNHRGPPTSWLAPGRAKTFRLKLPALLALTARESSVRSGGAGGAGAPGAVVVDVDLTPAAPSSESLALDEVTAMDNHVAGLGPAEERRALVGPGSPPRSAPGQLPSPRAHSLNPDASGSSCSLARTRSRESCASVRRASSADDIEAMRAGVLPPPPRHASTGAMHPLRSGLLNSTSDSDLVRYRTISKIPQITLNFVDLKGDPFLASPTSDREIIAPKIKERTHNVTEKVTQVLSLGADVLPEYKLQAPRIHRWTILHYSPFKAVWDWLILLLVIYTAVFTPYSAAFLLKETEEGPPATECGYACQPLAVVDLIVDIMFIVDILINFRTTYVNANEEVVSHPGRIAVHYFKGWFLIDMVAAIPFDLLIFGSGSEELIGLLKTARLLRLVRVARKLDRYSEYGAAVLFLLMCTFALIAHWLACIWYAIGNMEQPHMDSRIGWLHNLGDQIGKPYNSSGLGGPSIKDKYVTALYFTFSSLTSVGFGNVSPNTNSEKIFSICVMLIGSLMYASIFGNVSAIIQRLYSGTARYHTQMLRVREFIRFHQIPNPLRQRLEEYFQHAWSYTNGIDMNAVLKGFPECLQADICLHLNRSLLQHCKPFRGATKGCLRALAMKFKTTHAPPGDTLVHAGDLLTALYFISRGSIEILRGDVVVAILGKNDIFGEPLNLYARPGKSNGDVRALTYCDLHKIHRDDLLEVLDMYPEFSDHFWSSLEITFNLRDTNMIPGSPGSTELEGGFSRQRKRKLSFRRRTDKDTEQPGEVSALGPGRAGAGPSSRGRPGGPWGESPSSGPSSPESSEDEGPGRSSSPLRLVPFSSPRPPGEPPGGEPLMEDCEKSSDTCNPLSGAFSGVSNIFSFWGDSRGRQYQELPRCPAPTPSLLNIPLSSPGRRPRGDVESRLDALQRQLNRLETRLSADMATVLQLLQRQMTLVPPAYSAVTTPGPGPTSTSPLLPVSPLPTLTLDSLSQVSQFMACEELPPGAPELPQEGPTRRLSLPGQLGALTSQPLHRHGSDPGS

Compound	hERG current change (%, negative = inhibition) at 10uM
CCOc1cc(Br)c(C(=O)O)cc1OC	0.12%
CN(Cc1ccccc1)C(=O)CN1CCN(S(=O)(=O)c2ccc(Cl)c(Cl)c2)CC1	-32.2%
O=C(COc1ccc(S(=O)(=O)N2CCCC2)cc1Cl)Nc1ccc2c(c1)OCO2	7.83%
C/C=C(/C)C(=O)Nc1cccc(C2=NOC3(C2)C[C@@H](C(N)=O)N(C(=O)/C=C/CC)C3)c1 (stereo partly drawn)	9.09%
Cc1sc2ncnc(N(C)CCc3ccccn3)c2c1C.O=C(O)C(=O)O	21.5%
CCN(CC)C(=O)C(=O)c1cccn1-c1cccc(OC)c1C#N	-8.33%
CNc1nc(C)c(C#N)c(-c2ccccc2)c1C(C)=O	-7.81%
Cc1nc(Cl)c(N=Cc2cccc([N+](=O)[O-])c2)c(Cl)n1	24.2%
CC(C)CN(Cc1c(O)ccc2ccccc12)CC(C)C	15.1%
COc1ccc(N=C2O/C(=C/c3sc(=S)n(CC4CCCO4)c3O)N=C2C#N)cc1 (stereo not drawn)	7.37%
O=C(O)C1=C[C@H](c2ccccc2)C[C@H](OCCCCO)O1	0.325%
CCCNC(=O)C(=O)Nc1ccc(N(C)C)cc1	15.5%
O=C(NNC(=O)c1ccc(Br)o1)c1ccc(NC(=O)c2ccccc2)cc1	31.9%
CSc1oc(-c2ccccc2)nc1S(=O)(=O)c1ccc(C)cc1	12.5%
Cc1ccc(-n2c(Cc3ccccc3)n[nH]c2=S)cc1	3.31%
CCC(C)N=Cc1c(Nc2ccccc2)nc2c(C)cccn2c1=O (stereo not drawn)	17.6%
Cc1ccc(SCC(=O)OCC(=O)NCc2cccs2)cc1C	14.8%
CCOc1cc(C(N)=O)cc(Br)c1OCC	1.1%
Cn1nnc(NC(=S)NC(=O)c2ccc(-c3ccc(Br)cc3)o2)n1	2.51%

Compound	hERG current change (%, negative = inhibition) at 10uM
O=C(OCc1nc2ccccc2[n+]([O-])c1C(=O)c1ccccc1)c1cccnc1	-2.05%
O=S(=O)(NCCOCC(F)(F)C(F)F)c1ccc2oc3ccccc3c2c1	-8.11%
COC(=O)C1Cc2c([nH]c3ccccc23)C(C(C)C)N1 (stereo not drawn)	-12.4%
CSCCC1NC(=O)N(CC(=O)Nc2c(Cl)cc(Cl)cc2Cl)C1=O (stereo not drawn)	-2.68%
CCN(CC)CCN(Cc1cc2cc3c(cc2[nH]c1=O)OCCO3)C(=S)NCCCOC	12.6%
c1ccc(COCCN2CCN(CCOCc3ccccc3)CC2)cc1	-39.5%
CCS(=O)(=O)N1Cc2ccccc2CC1C(=O)Nc1ccc(OC)c(OC)c1 (stereo not drawn)	-6.57%
COc1ccccc1N(CC(=O)Nc1ccc(S(=O)(=O)N2CCCCC2)cc1)S(C)(=O)=O	-11.2%
Cc1nc2ncnn2c(N2CCN(C(=O)c3cccc(F)c3)CC2)c1C	-49.3%
C=C(C)C1CC=C(C)/C(=N/NC(=O)CNc2ccc(OCC)cc2)C1 (stereo not drawn)	-4.96%
CC(Cl)C(=O)c1c(N)n(C)c(=O)n(C)c1=O (stereo not drawn)	-0.00142%
COC(=O)c1ccc(NC(=O)Nc2ccc(OC)c(OC)c2)cc1	21.6%
O=C(O)c1ccccc1C(=O)Nc1ccc(-n2nccc2C(F)(F)F)cc1	17.5%
Nc1nc(=S)[nH]c2c1C1(CCCC1)Cc1ccccc1-2	10.3%
CCOC(=O)C1=NN(C(C)=O)C2(CC(=O)N(c3cccc(C)c3)C2=O)C1 (stereo not drawn)	11%
O=C(NCC(=O)N1CCN(C(=O)c2ccco2)CC1)c1ccccc1	-7.74%
CC(=O)c1c(N2CCOCC2)nc2ccc(Br)cc2c1-c1ccccc1	5.9%
O=C1/C(=C/c2cccnc2)CC/C1=C\c1cccnc1	-24.5%
NC(=O)c1ccccc1NCC(=O)c1ccc(Cl)cc1	16.4%

Compound	hERG current change (%, negative = inhibition) at 10uM
Cn1c(SCC(=O)NNC(=S)Nc2ccccc2)nnc1-c1ccncc1	12.3%
CC1CC(C)CN(C(=O)COC(=O)CNS(=O)(=O)/C=C/c2ccccc2)C1 (stereo not drawn)	-13%
Cc1ccc(C2CC(c3ccco3)n3nc(N)nc3N2)cc1 (stereo not drawn)	-19.2%
Cc1ccc(C(=O)OCC(=O)Nc2ccccc2Sc2ccccc2)cc1C	6.41%
CCOc1ccc(/C(O)=C/C(=O)C(=O)Nc2ccc(S(=O)(=O)NC(C)=O)cc2)cc1	16.9%
CN1C(=O)C(=O)/C(=C(/O)c2ccc(Br)cc2)C1c1ccccc1F (stereo not drawn)	8.71%
C(#CCN1CCOCC1)COC(c1ccccc1)c1ccccc1.Cl	8.73%
C[C@H](NC(=O)N1CCn2c1nc1ccccc12)C(=O)NCc1ccco1	-10.6%
CCOC(=O)c1csc(NC(=O)C2CCCCC2)n1	-0.161%
Cc1ccc(C(=O)NC2CCc3ccccc3C2=O)cc1 (stereo not drawn)	-8.68%
CCOc1ncccc1C(=O)OCC(=O)c1cc(OC)ccc1OC	-37.5%
O=C(NCCCn1ccnc1)c1cn(-c2ccccc2)nc1-c1ccc(F)cc1	-64%
CCOC(=O)COc1cc(-n2c(=S)[nH]c3ccccc3c2=O)c(Cl)cc1Cl	-3.27%
C/C(N=Nc1nc2ccccc2s1)=N\Nc1ccccc1O	9.5%
Cc1cccc(C(=O)NCCN2CCCC2)c1.Cl	-0.337%
O=C(CCc1nnc(CCCCc2ccccc2)o1)NCc1cc(F)ccc1F	-33.9%
C=CCc1cccc2cc(C(=O)Nc3ccc(CC(=O)O)cc3)c(=O)oc12	8.33%
COc1ccc(/C=C2\SC(=NCc3ccccc3)NC2=O)cc1	-3.64%
Cc1ccc(S(=O)(=O)NC2CC(C)(C)NC(C)(C)C2)c(C)c1C	3.07%
